Data on 20 sequences can be found in article PMC5892938.

Some of the results follow. At the low end of the ranking the order means little.

In this test the target is GST-SBP-SLBP (stem-loop binding protein) (UniProt Q14493). Briefly: targeted RNA Bind-n-Seq.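 Note: DESeq read counts versus GST-SBP nonspecific binding control pulldown.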 To be noted: RBNS binding buffer: 25 mM Tris pH 7.5, 150 mM KCl, 3 mM MgCl2, 0.1% Tween, 0.5 mg/mL BSA, 1 mM DTT; 27 nM protein, 750 pM RNA pool; temperature not stated; high values mean tight binding.
For the sequence “GGUCACGUCUCAAUCAACUCAUCCUCCAGGGAAAGCCCUGGCAUACUCAACAGCUCGCAGUCAAG”, the binding signal (log2 fold change) is -0.0738.

“GGUCACGUCUCAAUCAACUCCUACGAGGGGGGGAAAACCCCUUUACCCUCACACUCAACAGCUCGCAGUCAAG”: the binding signal (log2 fold change) was -0.0391.

For the sequence “GGUCACGUCUCAAUCAACUCUUUCUCCAGGGAAAGCCCUGGCUAUCUCAACAGCUCGCAGUCAAG”, the binding signal (log2 fold change) is -0.103.

“GGUCACGUCUCAAUCAACUCAAUUCCCAGGGAAAGCCCUGGUUAAUUCAACAGCUCGCAGUCAAG”: the binding signal (log2 fold change) was -0.00202.

On to “GGUCACGUCUCAAUCAACUCUAUUCCAGGAGUUUUCUCCUGCAAAUUCAACAGCUCGCAGUCAAG”, for which the binding signal (log2 fold change) was determined as 0.117.

“GGUCACGUCUCAAUCAACUCACAAGAGGGGGGGAAAACCCCUUUACCCUCCACCUCAACAGCUCGCAGUCAAG”: the binding signal (log2 fold change) was determined as 0.24.

Consider “GGUCACGUCUCAAUCAACUCAUUCGAGGGGGGGAAAACCCCUUUACCCUCUUCAUCAACAGCUCGCAGUCAAG”, for which the binding signal (log2 fold change) amounted to 0.175.

Regarding “GGUCACGUCUCAAUCAACUCAUUUUCAGGAGUUUACUCCUGUUAACUCAACAGCUCGCAGUCAAG”, the binding signal (log2 fold change) was -0.0284.

On to “GGUCACGUCUCAAUCAACUCAAUUCCAGGAGUUUACUCCUGUUUACUCAACAGCUCGCAGUCAAG”, for which the binding signal (log2 fold change) was determined as 0.0155.

With “GGUCACGUCUCAAUCAACUCCAUAGAGGGGGGGAAAACCCCUUUACCCUCACCUUCAACAGCUCGCAGUCAAG”, the binding signal (log2 fold change) was -0.0281.

In the case of “GGUCACGUCUCAAUCAACUCCUCCGAGGGGGGGAAAACCCCUUUACCCUCAUCAUCAACAGCUCGCAGUCAAG”, the binding signal (log2 fold change) was -0.198.

Take “GGUCACGUCUCAAUCAACUCAUCCCCCAGGGAAAUCCCUGGUAAUUUCAACAGCUCGCAGUCAAG”: the binding signal (log2 fold change) was 0.241.

Consider “GGUCACGUCUCAAUCAACUCUUUUUCCAGGGAAAUCCCUGGUUAUUUCAACAGCUCGCAGUCAAG”, for which the binding signal (log2 fold change) is 0.112.

In the case of “GGUCACGUCUCAAUCAACUCUUCGCCCAGGGAAAGCCCUGGUAUUCUCAACAGCUCGCAGUCAAG”, the binding signal (log2 fold change) was -0.163.

For the sequence “GGUCACGUCUCAAUCAACUCACUAGAGGGGGGGAAAACCCCUUUACCCUCGAAAUCAACAGCUCGCAGUCAAG”, the binding signal (log2 fold change) is 0.0521.

In the case of “GGUCACGUCUCAAUCAACUCAUUUUCCAGGGAAACCCCUGGUAUUUUCAACAGCUCGCAGUCAAG”, the binding signal (log2 fold change) was -0.088.

As to “GGUCACGUCUCAAUCAACUCAACUCCCAGGGAAAACCCUGGUUUAUUCAACAGCUCGCAGUCAAG”, the binding signal (log2 fold change) was -0.00236.

As to “GGUCACGUCUCAAUCAACUCAUUUUCAGGAGUUUUCUCCUGUUAUCUCAACAGCUCGCAGUCAAG”, the binding signal (log2 fold change) was found to be 0.171.

With “GGUCACGUCUCAAUCAACUCUCACGAGGGGGGGAAAACCCCUUUACCCUCAUCUUCAACAGCUCGCAGUCAAG”, the binding signal (log2 fold change) was -0.0599.

On to “GGUCACGUCUCAAUCAACUCCUAAGAGGGGGGGAAAACCCCUUUACCCUCCACUUCAACAGCUCGCAGUCAAG”, for which the binding signal (log2 fold change) was -0.07.
